“And” between values parts separate entries of the source, which are not always exact repeats. Identical values can stand only once. The whole screen tested about 110,000 compounds, of which about 230 (0.21%) showed an effect of 50% or more. The list shows a part of the results.
target: DPAP1 (Plasmodium falciparum, UniProt Q8IIJ9); test: primary screen, percent inhibition; read by cleavage of a fluorogenic dipeptide substrate; higher = more effect of the substance; design: species or system P. falciparum D10 trophozoite lysates; single well
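Also: 30 min substrate incubation versus DMSO and 10 µM JCP410 controls.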

Sequence of DPAP1 (Q8IIJ9 whole entry, looked up): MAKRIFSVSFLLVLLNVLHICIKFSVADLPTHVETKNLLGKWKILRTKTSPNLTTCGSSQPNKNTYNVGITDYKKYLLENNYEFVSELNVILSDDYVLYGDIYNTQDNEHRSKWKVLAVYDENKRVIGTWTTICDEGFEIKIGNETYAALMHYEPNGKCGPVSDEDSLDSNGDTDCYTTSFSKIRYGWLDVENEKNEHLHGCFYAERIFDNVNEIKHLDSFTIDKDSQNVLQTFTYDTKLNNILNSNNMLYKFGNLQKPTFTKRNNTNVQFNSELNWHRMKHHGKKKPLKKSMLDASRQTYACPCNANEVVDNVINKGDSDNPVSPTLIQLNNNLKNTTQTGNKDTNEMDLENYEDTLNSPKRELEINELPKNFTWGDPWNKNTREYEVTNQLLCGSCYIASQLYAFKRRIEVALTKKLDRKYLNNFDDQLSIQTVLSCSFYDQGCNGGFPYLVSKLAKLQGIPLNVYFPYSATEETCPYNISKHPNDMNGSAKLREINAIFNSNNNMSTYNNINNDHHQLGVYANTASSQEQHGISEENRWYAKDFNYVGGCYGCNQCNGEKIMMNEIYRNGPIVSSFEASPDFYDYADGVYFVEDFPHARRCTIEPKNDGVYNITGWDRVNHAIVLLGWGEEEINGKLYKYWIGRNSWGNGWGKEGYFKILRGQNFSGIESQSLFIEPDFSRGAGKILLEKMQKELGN

With `Cc1ccc(COC(=O)N[C@@H](CC(C)C)C(=O)NCC#N)cc1C` as the compound, how does the “% Inhibition @ 10 uM” value read?
Its value is -4.72%.

With `Cc1ccc2c(c1)cc1c(=O)n(CC(=O)NC(C)c3ccc4c(c3)OCCO4)nc(C)n12` (stereo not drawn) as the compound, how does the “% Inhibition @ 10 uM” value read?
Its value is 6.35%.

For `Cc1cc(C)nc(N2CCN(c3c4c(c(C#N)c5nc6ccccc6n35)CCC4)CC2)n1`, which “% Inhibition @ 10 uM” value is on record?
The value was -5.7%.

For `COc1ccc(CS(=O)(=O)C[C@H](NC(=O)c2ccccc2)C(=O)NCC#N)cc1`, which “% Inhibition @ 10 uM” value is on record?
The value was -1.83%.

With `CCN(CC)CCCNC(=O)C1CCN(c2nc3ccccc3n3cccc23)CC1` as the compound, how does the “% Inhibition @ 10 uM” value read?
The value was -1.97%.

Which “% Inhibition @ 10 uM” value does the source give for `COc1ccc(-c2nc3c4cnn(-c5cccc(F)c5)c4ncn3n2)cc1OC` here?
The value was -2.85%.

With `O=C(NCc1ccco1)c1nnc(-c2cccc(Cl)c2)o1` as the compound, how does the “% Inhibition @ 10 uM” value read?
Its value is 5.43%.

For `COc1ccc(-c2noc(CC(=O)NCc3ccc4c(c3)OCO4)n2)cc1`, which “% Inhibition @ 10 uM” value is on record?
The value was -2.85%.

For `O=C(CCC(=O)N1CCC(c2c[nH]c3ccccc23)(c2c[nH]c3ccccc23)CC1)N1CCOCC1`, which “% Inhibition @ 10 uM” value is on record?
The value was -0.637%.

`Cc1ccc(C(=O)NC(C)C23CC4CC(CC(C4)C2)C3)o1` (stereo not drawn) was tested. Which “% Inhibition @ 10 uM” value did it give?
The value was 1.69%.

Which “% Inhibition @ 10 uM” value does the source give for `Cn1c2ccccc2c2cnn(CC(=O)NCCCN3CCCC3=O)c(=O)c21` here?
The value was 1.41%.

How did the “% Inhibition @ 10 uM” value turn out when `COc1ccc2nc(NC(=O)/C=C/c3ccccc3)sc2c1` was run?
The value was -7.35%.

With `COc1ccc(NC(=O)c2sc3ccccc3c2Cl)cc1OC` as the compound, how does the “% Inhibition @ 10 uM” value read?
Its value is 2.7%.

`CCN(CCCNC(=O)CCn1c(=O)c2cccn2c2cccnc21)Cc1ccccc1` was tested. Which “% Inhibition @ 10 uM” value did it give?
Its value is -5.43%.

Which “% Inhibition @ 10 uM” value does the source give for `O=C(Nc1ccc(S(=O)(=O)Nc2ccc(Cl)cc2)cc1)c1ccc(Br)o1` here?
Its value is 1.27%.

Which “% Inhibition @ 10 uM” value does the source give for `Cc1cc(C)nc(SCCC(=O)Nc2ccccc2C)n1` here?
Its value is 1.83%.

With `CCOC(=O)Nc1ccc2c(c1)N(C(=O)CNC1CCCCC1)c1ccccc1CC2` as the compound, how does the “% Inhibition @ 10 uM” value read?
Its value is -4.26%.

How did the “% Inhibition @ 10 uM” value turn out when `COc1ccc(-c2cc(C(=O)NCc3ccc4c(c3)OCO4)[nH]n2)cc1` was run?
Its value is -1.3%.

How did the “% Inhibition @ 10 uM” value turn out when `COc1ccc(-c2noc(C(C)Oc3ccc(Cl)cc3Cl)n2)cc1OC` (stereo not drawn) was run?
The value was 2.17%.

For `COc1ccc(-c2cn3c4c(=O)n(C)c(=O)n(C)c4nc3n2-c2ccc(C)cc2)cc1`, which “% Inhibition @ 10 uM” value is on record?
Its value is 20.6%.

With `CCn1ncc(Cl)c1C(=O)NC(C)c1ccccc1` (stereo not drawn) as the compound, how does the “% Inhibition @ 10 uM” value read?
The value was 4.09%.

How did the “% Inhibition @ 10 uM” value turn out when `OC1=C2C(=Nc3nn(-c4ccccc4)c(O)c3C2c2ccc(C(F)(F)F)cc2)CCC1` (stereo not drawn) was run?
The value was 5.3%.

For `Cc1ccc(Cl)cc1NC(=O)CCC(=O)Nc1cc(Cl)ccc1C`, which “% Inhibition @ 10 uM” value is on record?
The value was -3.18%.

For `O=C(c1cccnc1)N1CCN(Cc2ccncc2)CC1`, which “% Inhibition @ 10 uM” value is on record?
The value was -8.85%.

How did the “% Inhibition @ 10 uM” value turn out when `COc1ccc(C2=NN(CC(=O)NCc3ccco3)C(=O)CC2)cc1` was run?
The value was 3.24%.

How did the “% Inhibition @ 10 uM” value turn out when `COc1ccc(S(=O)(=O)N(Cc2ccccc2)c2ccccn2)cc1` was run?
The value was 5.29%.

Which “% Inhibition @ 10 uM” value does the source give for `CN1CCN(C(=O)C2CCCCC2C(=O)O)CC1` (stereo not drawn) here?
Its value is 0.847%.

With `CC1CCCN(C(=O)c2cc(-c3ccco3)[nH]n2)C1` (stereo not drawn) as the compound, how does the “% Inhibition @ 10 uM” value read?
The value was 4.8%.

How did the “% Inhibition @ 10 uM” value turn out when `COCCNC(=O)c1nnc(-c2cccc(Cl)c2)o1` was run?
The value was 2.5%.

How did the “% Inhibition @ 10 uM” value turn out when `CC(C)CC(C(=O)N1CCC2(CC1)OCCO2)N1Cc2ccccc2C1=O` (stereo not drawn) was run?
Its value is 1.86%.

Which “% Inhibition @ 10 uM” value does the source give for `CN(c1ccc(C(=O)Nc2ccccc2C(=O)NC2CCCCC2)cc1)S(C)(=O)=O` here?
The value was 3.37%.

How did the “% Inhibition @ 10 uM” value turn out when `COc1ccc(-c2nn(CC(=O)O)cc2/C=C/c2cc(C(F)(F)F)nc(O)n2)cc1` was run?
Its value is 1.76%.

For `Cc1ccccc1OCCCCCN1CCOCC1`, which “% Inhibition @ 10 uM” value is on record?
Its value is 1.13%.

With `COC(=O)c1cc(S(=O)(=O)N(Cc2ccc(F)cc2)Cc2cccnc2)c[nH]1` as the compound, how does the “% Inhibition @ 10 uM” value read?
Its value is 1.26%.

Which “% Inhibition @ 10 uM” value does the source give for `COc1ccc(-c2csc3ncn(CC(=O)Nc4cccc(C)c4C)c(=O)c23)cc1` here?
The value was 6.05%.

For `CCCS(=O)(=O)c1nc(S(=O)(=O)c2ccc(C)cc2)c(NCC2CCCO2)s1` (stereo not drawn), which “% Inhibition @ 10 uM” value is on record?
Its value is -5.89%.

`CCc1c(C)sc(NC(=O)COc2ccc(Cl)cc2)c1C#N` was tested. Which “% Inhibition @ 10 uM” value did it give?
The value was -1.07%.

`O=C(O)C1CCCCC1C(=O)Nc1nc(-c2ccc(F)cc2)cs1` (stereo not drawn) was tested. Which “% Inhibition @ 10 uM” value did it give?
The value was -3.71%.

How did the “% Inhibition @ 10 uM” value turn out when `O=C(c1nc2ncccn2n1)N(C1CCCCC1)C1CCCCC1` was run?
The value was -5.41%.

`CCOC(=O)C1=C(O)/C(=C\c2sccc2C)N=C1C` was tested. Which “% Inhibition @ 10 uM” value did it give?
Its value is 4.26%.

How did the “% Inhibition @ 10 uM” value turn out when `Cc1nc(C)c2c(O)cc(-c3ccccc3)nc2n1` was run?
Its value is 3.83%.

With `O=C(c1csc2c1CCCC2)N1CCC2(CC1)OCCO2` as the compound, how does the “% Inhibition @ 10 uM” value read?
Its value is -1.44%.

How did the “% Inhibition @ 10 uM” value turn out when `COc1ccc(-c2nnc(SCC(=O)N3CC(C)CC(C)C3)o2)cc1OC` (stereo not drawn) was run?
Its value is 4.05%.

For `COc1ccc(CNS(=O)(=O)c2ccc(OC)c(Cl)c2Cl)cc1`, which “% Inhibition @ 10 uM” value is on record?
The value was -5.11%.

How did the “% Inhibition @ 10 uM” value turn out when `CCOC(=O)N1CCC(Nc2nc3ccccc3nc2NS(=O)(=O)c2ccc(Cl)cc2)CC1` was run?
The value was -5.76%.

Which “% Inhibition @ 10 uM” value does the source give for `O=S(=O)(NCc1ccccc1)c1ccc2nc(O)ccc2c1` here?
The value was -5.74%.

Which “% Inhibition @ 10 uM” value does the source give for `Cc1cccc2c1-c1sc(C(=O)NCCCN3CCOCC3)cc1CO2` here?
The value was -1.58%.

For `CCOc1ccc(C2=C/C(=C3/N=C(c4ccco4)OC3=O)c3ccccc3O2)cc1`, which “% Inhibition @ 10 uM” value is on record?
Its value is 5.12%.

Which “% Inhibition @ 10 uM” value does the source give for `COc1ccc(N2C(=O)CC(NCC34CC5CC(CC(C5)C3)C4)C2=O)cc1` (stereo not drawn) here?
The value was 0.231%.

Which “% Inhibition @ 10 uM” value does the source give for `COc1ccc(Br)cc1CN(C)C1CCN(C)CC1` here?
Its value is 2.47%.

`CCC(C)(C)NS(=O)(=O)c1c[nH]c(C(=O)OC)c1` was tested. Which “% Inhibition @ 10 uM” value did it give?
Its value is 4.14%.

With `CN1CCN(CN2C(=O)C(=O)c3ccccc32)CC1` as the compound, how does the “% Inhibition @ 10 uM” value read?
The value was 0.501%.

`O=C(c1ccco1)N1CCCN(C(=O)c2ccco2)CC1` was tested. Which “% Inhibition @ 10 uM” value did it give?
Its value is -2.42%.

Which “% Inhibition @ 10 uM” value does the source give for `Cc1ccc(-c2[nH]nc3c2C2(C(=O)Nc4ccc(Cl)cc42)C(C#N)=C(N)O3)cc1` (stereo not drawn) here?
Its value is 6.98%.

How did the “% Inhibition @ 10 uM” value turn out when `COc1cc(OC)c(OC)cc1CN1CCCN(C)CC1` was run?
The value was 1.4%.

With `Cc1nc(O)nc(O)c1S(=O)(=O)N1CCc2ccccc2C1` as the compound, how does the “% Inhibition @ 10 uM” value read?
Its value is -1.08%.

Which “% Inhibition @ 10 uM” value does the source give for `Cc1nc2ccc(S(=O)(=O)NC(CC(C)C)C(=O)N3CCn4c3nc3ccccc34)cc2s1` (stereo not drawn) here?
The value was 5.32%.

For `CCn1c(C(=O)OC)cc2oc(C)cc21`, which “% Inhibition @ 10 uM” value is on record?
The value was 17.8%.

How did the “% Inhibition @ 10 uM” value turn out when `CC(C)(C)c1ccc(C(=O)N(Cc2ccccc2F)C2CCS(=O)(=O)C2)cc1` (stereo not drawn) was run?
Its value is 3.62%.

`O=C(CN1C(=O)c2ccccc2S1(=O)=O)NCCSCc1ccc(Cl)cc1` was tested. Which “% Inhibition @ 10 uM” value did it give?
The value was -5.48% and -3.65%.

`CC1=C(C(=O)Nc2ccc(Br)cn2)C(c2cn(C)nc2C)C2=C(O)CC(C)(C)CC2=N1` (stereo not drawn) was tested. Which “% Inhibition @ 10 uM” value did it give?
Its value is 0.385%.

How did the “% Inhibition @ 10 uM” value turn out when `CC1=NNc2nc3c(c(=O)n(C)c(=O)n3C)n2C1C` (stereo not drawn) was run?
The value was -1.47%.

How did the “% Inhibition @ 10 uM” value turn out when `CCOC(=O)CN1CCCC1=C(C#N)C#N` was run?
Its value is 3.47%.

— paper PMC6919601, “Identification of Plasmodium dipeptidyl aminopeptidase allosteric inhibitors by high throughput screening” (PLoS ONE, 2019)
